Laboratory results as given in publication PMC4336329 (PLoS ONE, 2015).
The campaign covered roughly 310,000 compounds. About 2,200 (0.71%) showed an effect of 50% or more. The effect is printed as a negative number. This is one part of the list.

Biological target: human ether-à-go-go-related gene (hERG) potassium channel (human, UniProt Q12809)
Assay: primary screen, population patch clamp on CHO cells stably expressing hERG

Chain of human ether-à-go-go-related gene (hERG) potassium channel (Q12809 whole entry, looked up): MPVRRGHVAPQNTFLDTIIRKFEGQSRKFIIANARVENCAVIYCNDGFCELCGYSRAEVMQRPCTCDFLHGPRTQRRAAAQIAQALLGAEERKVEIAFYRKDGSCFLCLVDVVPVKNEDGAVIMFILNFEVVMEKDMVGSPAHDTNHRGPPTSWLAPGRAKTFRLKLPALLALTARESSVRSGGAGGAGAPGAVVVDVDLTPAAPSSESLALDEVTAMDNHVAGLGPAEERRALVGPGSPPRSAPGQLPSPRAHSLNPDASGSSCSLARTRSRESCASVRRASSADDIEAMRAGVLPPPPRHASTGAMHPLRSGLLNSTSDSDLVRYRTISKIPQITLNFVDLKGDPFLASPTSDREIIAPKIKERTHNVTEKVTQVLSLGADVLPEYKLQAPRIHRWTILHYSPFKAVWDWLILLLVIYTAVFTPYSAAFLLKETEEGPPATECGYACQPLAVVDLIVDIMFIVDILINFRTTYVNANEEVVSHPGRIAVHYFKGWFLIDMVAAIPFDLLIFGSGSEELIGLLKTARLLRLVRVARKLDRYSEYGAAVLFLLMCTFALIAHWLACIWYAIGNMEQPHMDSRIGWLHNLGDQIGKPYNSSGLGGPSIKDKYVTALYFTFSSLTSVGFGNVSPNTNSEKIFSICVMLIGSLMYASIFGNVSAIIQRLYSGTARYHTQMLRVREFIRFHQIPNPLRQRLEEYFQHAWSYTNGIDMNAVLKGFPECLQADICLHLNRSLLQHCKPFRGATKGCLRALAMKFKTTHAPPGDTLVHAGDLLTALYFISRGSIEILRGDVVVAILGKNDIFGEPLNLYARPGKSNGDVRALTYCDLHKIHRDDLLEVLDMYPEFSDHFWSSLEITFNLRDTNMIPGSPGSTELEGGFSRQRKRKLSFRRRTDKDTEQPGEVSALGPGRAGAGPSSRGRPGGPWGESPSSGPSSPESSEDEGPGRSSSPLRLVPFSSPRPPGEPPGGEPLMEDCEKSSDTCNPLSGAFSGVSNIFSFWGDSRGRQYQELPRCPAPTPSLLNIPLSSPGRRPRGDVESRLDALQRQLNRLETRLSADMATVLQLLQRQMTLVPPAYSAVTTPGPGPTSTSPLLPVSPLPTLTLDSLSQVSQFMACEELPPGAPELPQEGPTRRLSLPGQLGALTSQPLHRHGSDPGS

In order of falling “hERG current change (%, negative = inhibition) at 1uM” value:
1. COCCCNC(=O)C1CC(=O)N(c2ccc(C)cc2)C1 (stereo not drawn)  23.7%
2. COC(=O)c1c(N)nc(C)n1-c1ccc(OC)cc1  16.2%
3. O=C1c2ccccc2NC(c2ccccc2O)N1O (stereo not drawn)  16%
4. Cc1cc(-c2nnc(CCC(=O)NCC(C)c3ccccc3)o2)no1 (stereo not drawn)  14.2%
5. CC1CCN(c2c(NCC3CCC(C(=O)NCc4ccccc4)CC3)c(=O)c2=O)CC1 (stereo not drawn)  13.1%
6. Cc1ccccc1C(=O)NNC(=O)c1cc(N)cc([N+](=O)[O-])c1  12.5%
7. COc1ccc(CC2c3cc(OC)c(OC)cc3CC[N+]2(C)CCC(=O)OCCCCCOC(=O)CC[N+]2(C)CCc3cc(OC)c(OC)cc3C2Cc2ccc(OC)c(OC)c2)cc1OC.O=S(=O)([O-])c1ccccc1 (stereo not drawn)  11.8%
8. COc1ccc(/C=C(/NC(=O)c2cccs2)C(=O)NC(C)(C)C)cc1OC  11.7%
9. CC(C)(C)c1ccc(C(=O)N/C(=C/c2cccs2)C(=O)NCc2ccco2)cc1  10.9%
10. COc1cccc(CNS(=O)(=O)c2ccc3c(c2)N(C(C)=O)CCO3)c1  10.2%
11. COc1ccccc1N1CCN(C(=O)CCn2c(=O)[nH]c3ccsc3c2=O)CC1  9.17%
12. CC(SCc1ccccc1)C(=O)N/N=C/c1ccc(OCC(=O)NCc2ccco2)cc1 (stereo not drawn)  8.33%
13. CC1CCCC(C)N1CCCNC(=O)CN1C(=O)c2cccnc2Oc2ccc(Cl)cc21 (stereo not drawn)  6.15%
14. CCN(CC)C(=O)c1sc(NC(=O)Cc2cccs2)c(C#N)c1C  6%
15. O=[N+]([O-])c1ccc(N(CC2CO2)S(=O)(=O)c2ccccc2)cc1 (stereo not drawn)  5.42%
16. COC(=O)C1C(=O)NC(SC)=C(C#N)C1c1ccccc1F (stereo not drawn)  5.08%
17. O=C(NCc1ccccc1)C1=C[C@H](c2ccc(C(F)(F)F)cc2)C[C@H](OCCCCO)O1  4.91%
18. CC(NC(=S)Nc1c(Br)cccc1OC(F)F)C(C)(C)C (stereo not drawn)  4.69%
19. N/C(Cc1ccc(Cl)cc1)=N\OC(=O)c1ccccc1  2.79%
20. CCc1nnc(NC(=O)c2cccnc2SC)s1  2.02%
21. CC(CNC(=O)C1CCCCC1)NC(=O)C1CCCCC1 (stereo not drawn)  1.44%
22. COc1cccc(-n2cnc3sc(C)c(C)c3c2=O)c1  -3.5%
23. O=C(Cn1cc2c(n1)CCCC2)NCCCN1CCN(Cc2ccccc2)CC1  -7.47%
24. CC1CC(C)CN(CCCNC(=O)c2ccc3nc(N4CCCCC4)sc3c2)C1 (stereo not drawn)  -12.1%
